Whole data set: some 2,900 compounds, median “NF-kB SEAP reporter activity, fold change vs agonist alone” near 0.99, cut for the highest 2% near 2.6. The list shows a part of the results.
Tests used:
RAW-Dual [1] = assay: NF-kB SEAP reporter activity, fold change vs agonist alone; higher = enhanced NF-kB activity
In short: (§1)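 Supernatant from RAW-Dual macrophages was read after 20 hours for IRF by QuantiLuc luminescence and for NF-κB by QuantiBlue absorbance at 620 nm. The cells (50,000 cells/well in DMEM, 384-well plates, 37 °C, 5% CO2) had received 50 nL of library stock by pin tool and, 1 h later, a PRR agonist. Reporter activity is expressed relative to agonist-alone wells as fold change, and wells were flagged cytotoxic if IncuCyte confluency was under 70% of agonist controls in both mask sets.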

RAW-Dual [2] = assay: NF-kB SEAP reporter activity, fold change vs agonist alone; cytotoxicity flag (confluency mask): not cytotoxic; higher = enhanced NF-kB activity
In short: as §1

RAW-Dual [3] = assay: NF-kB SEAP reporter activity, fold change vs agonist alone; cytotoxicity flag (confluency mask): cytotoxic (confluency <70% of control); higher = enhanced NF-kB activity
In short: as §1

[4] = library stock concentration (final ~1000-fold dilution): 10 mM, cytotoxicity flag (confluency mask): not cytotoxic, agonist: Imiquimod (TLR7) […]
[5] = library stock concentration (final ~1000-fold dilution): 10 mM, cytotoxicity flag (confluency mask): not cytotoxic, agonist: MPLA (TLR4) […]
[6] = agonist: ODN 1826 (TLR9) 0.5 ug/mL
[7] = agonist: Pam2CSK4 (TLR2/6) 0.1 ug/mL
[8] = agonist: Pam3CSK4 (TLR2/1) 0.1 ug/mL

O=C(NOCC1CC1)c1ccc(F)c(F)c1Nc1ccc(I)cc1Cl
NF-kB SEAP reporter activity (RAW-Dual [1]; [4]): 0.193
NF-kB SEAP reporter activity (RAW-Dual [1]; [5]): 0.202

O=C(NOCC1CC1)c1ccc(F)c(F)c1Nc1ccc(I)cc1Cl (library stock concentration (final ~1000-fold dilution): 10 mM)
NF-kB SEAP reporter activity (RAW-Dual [2]; agonist: LPS (TLR4) 0.1 ug/mL): 0.238
NF-kB SEAP reporter activity (RAW-Dual [2]; [6]): 0.185
NF-kB SEAP reporter activity (RAW-Dual [2]; [7]): 0.0847
NF-kB SEAP reporter activity (RAW-Dual [2]; [8]): 0.147

CS(=O)(=O)CCNCc1ccc(-c2ccc3ncnc(Nc4ccc(OCc5cccc(F)c5)c(Cl)c4)c3c2)o1.Cc1ccc(S(=O)(=O)O)cc1.Cc1ccc(S(=O)(=O)O)cc1.O
NF-kB SEAP reporter activity (RAW-Dual [1]; [5]): 1.99

CS(=O)(=O)CCNCc1ccc(-c2ccc3ncnc(Nc4ccc(OCc5cccc(F)c5)c(Cl)c4)c3c2)o1.Cc1ccc(S(=O)(=O)O)cc1.Cc1ccc(S(=O)(=O)O)cc1.O (library stock concentration (final ~1000-fold dilution): 10 mM)
NF-kB SEAP reporter activity (RAW-Dual [2]; agonist: LPS (TLR4) 0.1 ug/mL): 1.96
NF-kB SEAP reporter activity (RAW-Dual [2]; [6]): 0.24
NF-kB SEAP reporter activity (RAW-Dual [2]; [7]): 0.755
NF-kB SEAP reporter activity (RAW-Dual [2]; [8]): 0.786

NC(=O)c1ccccc1O
NF-kB SEAP reporter activity (RAW-Dual [1]; [4]): 0.898
NF-kB SEAP reporter activity (RAW-Dual [1]; [5]): 1.07

NC(=O)c1ccccc1O (library stock concentration (final ~1000-fold dilution): 10 mM)
NF-kB SEAP reporter activity (RAW-Dual [2]; agonist: LPS (TLR4) 0.1 ug/mL): 1.23
NF-kB SEAP reporter activity (RAW-Dual [2]; [6]): 0.958
NF-kB SEAP reporter activity (RAW-Dual [2]; [7]): 1.08
NF-kB SEAP reporter activity (RAW-Dual [2]; [8]): 1.08

CC(=O)OC1CCC2(C)C(CCC3(C)C2C(=O)C=C2C4C(C)C(C)CCC4(C)CCC23C)C1(C)C(=O)O (stereo unspecified)
NF-kB SEAP reporter activity (RAW-Dual [1]; [4]): 1.02
NF-kB SEAP reporter activity (RAW-Dual [1]; [5]): 0.967

CC(=O)OC1CCC2(C)C(CCC3(C)C2C(=O)C=C2C4C(C)C(C)CCC4(C)CCC23C)C1(C)C(=O)O (stereo unspecified) (library stock concentration (final ~1000-fold dilution): 10 mM)
NF-kB SEAP reporter activity (RAW-Dual [2]; agonist: LPS (TLR4) 0.1 ug/mL): 0.924
NF-kB SEAP reporter activity (RAW-Dual [2]; [6]): 0.962
NF-kB SEAP reporter activity (RAW-Dual [2]; [7]): 0.723
NF-kB SEAP reporter activity (RAW-Dual [2]; [8]): 1.09

CC(C)C[C@H](NC(=O)[C@H](Cc1ccccc1)NC(=O)c1cnccn1)B(O)O
NF-kB SEAP reporter activity (RAW-Dual [1]; library stock concentration (final ~1000-fold dilution): 10 mM, cytotoxicity flag (confluency mask): cytotoxic (confluency <70% of control), agonist: Imiquimod (TLR7) […]): 2.15
NF-kB SEAP reporter activity (RAW-Dual [1]; library stock concentration (final ~1000-fold dilution): 10 mM, cytotoxicity flag (confluency mask): cytotoxic (confluency <70% of control), agonist: MPLA (TLR4) […]): 0.679

CC(C)C[C@H](NC(=O)[C@H](Cc1ccccc1)NC(=O)c1cnccn1)B(O)O (library stock concentration (final ~1000-fold dilution): 10 mM)
NF-kB SEAP reporter activity (RAW-Dual [3]; agonist: LPS (TLR4) 0.1 ug/mL): 0.448
NF-kB SEAP reporter activity (RAW-Dual [3]; [6]): 1.21
NF-kB SEAP reporter activity (RAW-Dual [3]; [7]): 0.987
NF-kB SEAP reporter activity (RAW-Dual [3]; [8]): 0.481

COC(=O)C1CC2=CC(=O)CCC2(C)C23OC2CC2(C)C(CCC24CCC(=O)O4)C13 (stereo unspecified)
NF-kB SEAP reporter activity (RAW-Dual [1]; library stock concentration (final ~1000-fold dilution): 2 mM, cytotoxicity flag (confluency mask): not cytotoxic, agonist: Imiquimod (TLR7) […]): 1.03
NF-kB SEAP reporter activity (RAW-Dual [1]; library stock concentration (final ~1000-fold dilution): 2 mM, cytotoxicity flag (confluency mask): not cytotoxic, agonist: MPLA (TLR4) […]): 1.18

COC(=O)C1CC2=CC(=O)CCC2(C)C23OC2CC2(C)C(CCC24CCC(=O)O4)C13 (stereo unspecified) (library stock concentration (final ~1000-fold dilution): 2 mM)
NF-kB SEAP reporter activity (RAW-Dual [2]; agonist: LPS (TLR4) 0.1 ug/mL): 1.3
NF-kB SEAP reporter activity (RAW-Dual [2]; [6]): 1.23
NF-kB SEAP reporter activity (RAW-Dual [2]; [7]): 1.27
NF-kB SEAP reporter activity (RAW-Dual [2]; [8]): 1.12

CS(=O)(=O)c1ccc(C(=O)Nc2ccc(Cl)c(-c3ccccn3)c2)c(Cl)c1
NF-kB SEAP reporter activity (RAW-Dual [1]; [4]): 1.07
NF-kB SEAP reporter activity (RAW-Dual [1]; [5]): 0.945

CS(=O)(=O)c1ccc(C(=O)Nc2ccc(Cl)c(-c3ccccn3)c2)c(Cl)c1 (library stock concentration (final ~1000-fold dilution): 10 mM)
NF-kB SEAP reporter activity (RAW-Dual [2]; agonist: LPS (TLR4) 0.1 ug/mL): 1.19
NF-kB SEAP reporter activity (RAW-Dual [2]; [6]): 1.4
NF-kB SEAP reporter activity (RAW-Dual [2]; [7]): 0.898
NF-kB SEAP reporter activity (RAW-Dual [2]; [8]): 1.01
